Hit rate of the full screen: of about 310,000 compounds, about 2,200 (0.71%) showed an effect of 50% or more. The effect is printed as a negative number. This is one part of the list.
Target: human ether-à-go-go-related gene (hERG) potassium channel (human, UniProt Q12809)
Experiment: primary screen, population patch clamp on CHO cells stably expressing hERG

Chain of human ether-à-go-go-related gene (hERG) potassium channel (Q12809 whole entry, looked up): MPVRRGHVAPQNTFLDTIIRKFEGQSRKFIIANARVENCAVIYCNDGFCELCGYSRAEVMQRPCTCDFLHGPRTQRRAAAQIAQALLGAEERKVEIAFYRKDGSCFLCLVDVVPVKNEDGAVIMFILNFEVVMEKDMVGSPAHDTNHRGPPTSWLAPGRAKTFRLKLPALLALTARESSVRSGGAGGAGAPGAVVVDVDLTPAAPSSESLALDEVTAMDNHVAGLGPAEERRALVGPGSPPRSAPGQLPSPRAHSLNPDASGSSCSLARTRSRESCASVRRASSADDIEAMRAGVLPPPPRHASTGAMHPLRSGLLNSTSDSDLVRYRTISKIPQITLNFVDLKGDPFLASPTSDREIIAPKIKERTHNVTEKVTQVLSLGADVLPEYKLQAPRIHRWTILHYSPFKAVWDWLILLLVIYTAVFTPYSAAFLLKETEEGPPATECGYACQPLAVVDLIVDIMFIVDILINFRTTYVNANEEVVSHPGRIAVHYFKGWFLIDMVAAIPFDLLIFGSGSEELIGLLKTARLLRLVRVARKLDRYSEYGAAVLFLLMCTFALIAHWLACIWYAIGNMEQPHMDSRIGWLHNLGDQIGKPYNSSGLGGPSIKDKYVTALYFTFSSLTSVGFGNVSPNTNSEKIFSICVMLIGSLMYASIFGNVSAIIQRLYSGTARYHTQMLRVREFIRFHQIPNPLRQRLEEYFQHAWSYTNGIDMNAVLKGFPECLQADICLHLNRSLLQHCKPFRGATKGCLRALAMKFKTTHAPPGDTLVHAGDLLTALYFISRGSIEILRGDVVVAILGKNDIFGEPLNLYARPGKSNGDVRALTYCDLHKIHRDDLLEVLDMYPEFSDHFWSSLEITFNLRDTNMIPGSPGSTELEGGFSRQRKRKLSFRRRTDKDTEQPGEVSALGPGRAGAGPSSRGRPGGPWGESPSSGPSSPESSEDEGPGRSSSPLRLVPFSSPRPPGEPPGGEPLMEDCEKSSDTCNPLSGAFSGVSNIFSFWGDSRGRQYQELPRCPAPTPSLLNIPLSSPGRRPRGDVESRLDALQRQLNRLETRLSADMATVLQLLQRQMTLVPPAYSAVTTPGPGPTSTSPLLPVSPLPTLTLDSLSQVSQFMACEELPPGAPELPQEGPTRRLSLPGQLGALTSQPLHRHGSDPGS

Going from `N#Cc1c(-c2ccco2)c2c([nH]c1=S)CCCC2` to `CSc1nsc(/C=C/Nc2cccc(Cl)c2)c1C#N`, the “hERG current change (%, negative = inhibition) at 1uM” value rises from 12.8% to 13.2%.

Compared with `Cc1ccc(-c2cc(C(F)F)n3ncc(C(=O)N4CCN5CCCC5C4)c3n2)cc1` (stereo not shown), `O=C(c1ccc(F)cc1)N1CCN(c2ccc([N+](=O)[O-])cc2-n2cccc2)CC1` is higher in “hERG current change (%, negative = inhibition) at 1uM” value: -21.6% for the first, -17.6% for the second.

First: O=C(C(NS(=O)(=O)c1cccc2nsnc12)c1ccccc1)N1CCN(c2ccccn2)CC1 (stereo not shown)
Second: O=C(C1CCN(S(=O)(=O)c2cccc3nsnc23)CC1)N1CCN(c2ccccc2F)CC1
The “hERG current change (%, negative = inhibition) at 1uM” value of the first is lower: -15% for the first, 8.77% for the second.

First: CCOC(=O)N1CCN(Cc2cc(=O)oc3ccc(Cl)cc23)CC1
Second: CCOC(=O)N1CCN(C(=O)c2cc3c(=O)[nH]c4ccccc4c3s2)CC1
The “hERG current change (%, negative = inhibition) at 1uM” value of the first is lower: 1.74% for the first, 9.74% for the second.

Compared with `Cc1nn(-c2cc(C(F)(F)F)ccn2)c(=O)o1`, `Cc1nn(Cc2ccc(Cl)cc2Cl)c(Cl)c1/C=N/NC(=O)CNc1cccc(C(F)(F)F)c1` is lower in “hERG current change (%, negative = inhibition) at 1uM” value: 15% for the first, 8.09% for the second.

First: O=C1S/C(=C\c2ccc(Cl)cc2)C(=O)N1CCn1cnnn1
Second: CCN(CCO)Cc1csc2ccc(Cl)cc12.Cl
The “hERG current change (%, negative = inhibition) at 1uM” value of the first is lower: -4.31% for the first, 5.63% for the second.

First: COc1ccc(Nc2cc(=O)n(-c3ccccc3)c3c2c(=O)n(C)c(=O)n3C)cc1
Second: COc1ccc(N2CC(NS(=O)(=O)c3ccc4ccccc4c3)CC2=O)cc1 (stereo not shown)
The “hERG current change (%, negative = inhibition) at 1uM” value of the first is higher: 15.9% for the first, 15.4% for the second.

Going from `Cc1ccc(-n2nnnc2SCc2ccccn2)cc1C` to `Cc1[nH]c2ccccc2c1C(=O)CSc1ccccn1`, the “hERG current change (%, negative = inhibition) at 1uM” value falls from 12.6% to -5.55%.

Compared with `CCCNC(=O)N1[C@H]2CC[C@@H]1C(C(=O)OC)=C(c1ccc3ccccc3c1)C2`, `Cc1cccc(C(=O)OCC(=O)Nc2ccccc2C(=O)NC2CC2)c1` is lower in “hERG current change (%, negative = inhibition) at 1uM” value: 4.04% for the first, 1.27% for the second.

First: Cc1cc2c(cc1C)CSC(c1ccccc1OC(=O)C(C)C)SC2
Second: Cc1cc(C)c(NC(=O)C2CC(=O)N(Cc3ccccc3)C2)c(C)c1 (stereo not shown)
The “hERG current change (%, negative = inhibition) at 1uM” value of the first is lower: 11.5% for the first, 18.4% for the second.

First: CCO[C@H]1OC(C(=O)N2CCOCC2)=C[C@@H](c2cn(C(C)=O)c3ccccc23)[C@@H]1CCCO
Second: CC1CN(S(=O)(=O)c2cccc(C(=O)Nc3cc(Cl)ccc3N3CCOCC3)c2)CC(C)O1 (stereo not shown)
The “hERG current change (%, negative = inhibition) at 1uM” value of the first is higher: 4.63% for the first, -6.88% for the second.

First: CCN1C(=O)N[C@@H](c2cccc(F)c2)C(C(C)=O)=C1C
Second: CCc1ccc(NC(=O)c2[nH]c(C)c(C(C)=O)c2C)cc1
The “hERG current change (%, negative = inhibition) at 1uM” value of the first is higher: 21.4% for the first, 13.8% for the second.

First: O=C(COC(=O)CC1CC2CCC1C2)NC(=O)NCc1ccco1 (stereo not shown)
Second: CCOC(=O)C1CCCN(C(=O)c2cccc(NC(=O)C(CC)CC)c2)C1 (stereo not shown)
The “hERG current change (%, negative = inhibition) at 1uM” value of the first is lower: 10.5% for the first, 12.7% for the second.

Going from `CCN(CC)c1nc(Oc2ccc(C(=O)OC)cc2)nc(N2CCOCC2)n1` to `Cc1ccc2cc(S(=O)(=O)NCCCN3CCOCC3)ccc2c1`, the “hERG current change (%, negative = inhibition) at 1uM” value rises from -4.31% to 7.94%.

Compared with `COc1cccc(OC)c1C(=O)Nc1ccc(N2CCN(C(=O)c3cccs3)CC2)cc1`, `O=C(CN1CCN(c2ccc(F)cc2)CC1)N1N=CCC1c1ccccc1` (stereo not shown) is lower in “hERG current change (%, negative = inhibition) at 1uM” value: 10.7% for the first, 3.98% for the second.

First: O=C(O)COc1ccc(NC(=O)c2cccs2)cc1
Second: Cc1ccc(NC(=O)c2ccco2)c(NC(=O)COc2ccccc2)c1
The “hERG current change (%, negative = inhibition) at 1uM” value of the first is higher: 21.7% for the first, 2.3% for the second.

Going from `Cc1cc(N2CCOCC2)nc(N)n1` to `Cc1cc(C)nc(SCC(=O)N2CCc3ccccc32)n1`, the “hERG current change (%, negative = inhibition) at 1uM” value falls from 16.1% to 11.4%.

Compared with `COc1ccc(Cl)cc1NC(=O)C(=O)N/N=C/c1cc(C)n(-c2ccc(C)cc2)c1C`, `COc1ccc(C)cc1Nc1nc(-c2c(C)[nH]c3ccccc23)cs1` is higher in “hERG current change (%, negative = inhibition) at 1uM” value: 3.26% for the first, 4.55% for the second.

Compared with `O=C(N/N=C1\NC(=O)C(CO)(CO)S1)c1ccccc1`, `CCCCOC(=O)/C(=C\c1ccc([N+](=O)[O-])o1)NC(=O)c1ccccc1` is lower in “hERG current change (%, negative = inhibition) at 1uM” value: 8.23% for the first, -7.56% for the second.

Going from `O=C(NC(NC1CCS(=O)(=O)C1)C(=O)c1cccs1)c1ccccc1` (stereo not shown) to `O=C(NCC1COc2ccccc2O1)c1cccc(S(=O)(=O)N2CCCCC2)c1` (stereo not shown), the “hERG current change (%, negative = inhibition) at 1uM” value falls from 6.57% to -2.43%.

First: CCCCn1c(SCC(=O)NC2CCS(=O)(=O)C2)nnc1-c1ccc(OC)cc1 (stereo not shown)
Second: CCCN(CC1CC1)C(=O)CSc1nnc(-c2ccco2)n1N
The “hERG current change (%, negative = inhibition) at 1uM” value of the first is higher: 6.62% for the first, -9.85% for the second.

Going from `CC(C)(C)c1ccc(C(=O)C2CCCN(C(=O)C3CCOCC3)C2)cc1` (stereo not shown) to `CCC(=O)Nc1ccc(C(=O)NNC(=O)C2CCCCC2)cc1`, the “hERG current change (%, negative = inhibition) at 1uM” value rises from 5.39% to 7.91%.

First: CC(=O)Nc1ccc(S(=O)(=O)Nc2c(C)nn(-c3ccccc3)c2C)cc1
Second: CC(=O)Nc1ccc(S(=O)(=O)NCCC(=O)Nc2cc(C)ccn2)cc1
The “hERG current change (%, negative = inhibition) at 1uM” value of the first is lower: 2.79% for the first, 7.82% for the second.

First: Cc1cc(NC(=O)CSc2nnc(-c3ccco3)n2Cc2ccccc2)no1
Second: CCCSc1nc(=S)n(Cc2ccccc2)c(C)c1C(C)=O
The “hERG current change (%, negative = inhibition) at 1uM” value of the first is lower: -1.97% for the first, 1.92% for the second.

Going from `CC(CN1CCCCC1)C(=O)NNC(=O)C12CC3CC(CC(C3)C1)C2` (stereo not shown) to `OCCNc1nc(N2CCCC2)nc(N2CCCC2)n1`, the “hERG current change (%, negative = inhibition) at 1uM” value rises from 6.9% to 8.4%.

First: O=C(N/N=C/c1ccc(Sc2nc3ccccc3[nH]2)o1)c1ccncc1
Second: O=C(NNC1=Nc2cccc3cccc1c23)c1ccc(Br)cc1
The “hERG current change (%, negative = inhibition) at 1uM” value of the first is lower: 10.1% for the first, 22.6% for the second.

Going from `CCOC(=O)c1cn(CC#N)c2cc(F)c(F)cc2c1=O` to `O=C(Cn1nc(C(=O)O)c2ccccc2c1=O)Nc1ccc(F)cc1F`, the “hERG current change (%, negative = inhibition) at 1uM” value rises from 12.7% to 16%.

Compared with `COc1cc2c3c(c1)/C(=C1/SC(NC(C)=O)=NC1=O)C(=O)N3C(C)(C)C=C2C`, `COc1ccc(C(=O)Nc2nc(C)c(C)s2)cc1OC` is higher in “hERG current change (%, negative = inhibition) at 1uM” value: -1.44% for the first, 5.7% for the second.

First: CCN(CC(=O)Nc1c(F)cccc1F)C(=O)CCCc1cccs1
Second: CSc1cccc(NC(=O)CN(c2ccc(C)cc2C)S(C)(=O)=O)c1
The “hERG current change (%, negative = inhibition) at 1uM” value of the first is higher: 2.48% for the first, 0.783% for the second.

Going from `COc1ccc(CNC(=O)c2ccc(=O)oc2)cc1OC` to `COC(=O)c1ccc(CN(C)S(=O)(=O)c2ccc(C)cc2)o1`, the “hERG current change (%, negative = inhibition) at 1uM” value falls from 13.3% to 4.95%.

First: CCc1ccc(C(=O)NNc2cc(Cl)cc(Cl)c2)cc1
Second: Cc1ccc(NC(=O)c2cccc(OCc3c(C)noc3C)c2)c(C)c1
The “hERG current change (%, negative = inhibition) at 1uM” value of the first is higher: 9.61% for the first, 2.84% for the second.

Compared with `Nc1nc(-c2ccc([N+](=O)[O-])cc2)c(C(=O)Nc2ccc(Cl)cc2)s1`, `Cc1ccc(NC(=O)c2ccc(-n3cncn3)c([N+](=O)[O-])c2)cc1` is lower in “hERG current change (%, negative = inhibition) at 1uM” value: 13.1% for the first, 0.439% for the second.

Compared with `COc1cccc(CN2CCNC(=O)C2CC(=O)N(C)C2CCOCC2)c1OC` (stereo not shown), `CCOC(=O)C1CCCN(C(=O)c2cc(S(=O)(=O)Nc3ccccc3OC)ccc2C)C1` (stereo not shown) is lower in “hERG current change (%, negative = inhibition) at 1uM” value: 13.7% for the first, 5.22% for the second.

First: Cc1ccc2[nH]c3nc(SCC#N)nnc3c2c1
Second: Nc1ccc2nc3c(=O)n(C4CCCCC4)c(=O)[nH]c3nc2c1
The “hERG current change (%, negative = inhibition) at 1uM” value of the first is higher: 12.1% for the first, 7.72% for the second.

Compared with `O=c1[nH]n2cc(-n3cc([N+](=O)[O-])cn3)cnc2c1Br`, `Cc1c(C(=O)Oc2ccc(-c3cnc4ccccc4n3)cc2)cccc1[N+](=O)[O-]` is higher in “hERG current change (%, negative = inhibition) at 1uM” value: 12% for the first, 12.9% for the second.

Going from `c1ccc(C2CCCN(Cc3nc(CC4CC4)no3)CC2)cc1` (stereo not shown) to `CSc1ccccc1C(=O)C1CCCN(Cc2ccn[nH]2)C1` (stereo not shown), the “hERG current change (%, negative = inhibition) at 1uM” value falls from 10.8% to 3.79%.

First: CC(C)c1ccc(CNCc2ccccc2)cc1.Cl
Second: Cc1ccc(NC(=S)N2CCN(Cc3ccccc3)CC2)cc1
The “hERG current change (%, negative = inhibition) at 1uM” value of the first is lower: -0.563% for the first, 19.3% for the second.

First: Cc1ccc(/C=C2\Oc3cc(OCC(=O)NN)ccc3C2=O)o1
Second: Cc1cc(C)cc(OCC(=O)Nc2ccccc2N2CCCCC2)c1
The “hERG current change (%, negative = inhibition) at 1uM” value of the first is higher: 12.2% for the first, 8.81% for the second.

Going from `COc1ccc(/C=N/OCC(=O)N(Cc2ccc(OC)cc2)c2ccccc2C(=O)O)cc1` to `O=C(NC1=NCCS1)c1ccccc1OCc1ccc(F)cc1`, the “hERG current change (%, negative = inhibition) at 1uM” value rises from 5.39% to 10.2%.

Going from `O=S(=O)(Nc1nc2ccccc2nc1Cl)c1ccc2c(c1)OCCO2` to `COc1cccc(C2C(C(N)=O)=C(C)Nc3nc(-c4cccc(Cl)c4)nn32)c1` (stereo not shown), the “hERG current change (%, negative = inhibition) at 1uM” value falls from 8.99% to 8.64%.

Compared with `O=C(c1cccc(Cl)c1)N1CCC(=O)N(C(COCc2ccccc2)Cc2ccccc2)CC1` (stereo not shown), `Cc1ccc(S(=O)(=O)N2CCN(CCc3ccccc3)CC2)c(C)c1.O=C(O)C(=O)O` is lower in “hERG current change (%, negative = inhibition) at 1uM” value: 11.6% for the first, 7.03% for the second.

Going from `COC(=O)C1=C(O)C(C(=O)OC)C(c2ccc(C)cc2)C(C#N)(C#N)C1c1ccc(C)cc1` (stereo not shown) to `CN1C2C=C3C(C#N)=C(N)C(C#N)(C#N)[C@@H](c4cccs4)C3C1CC2` (stereo partly shown), the “hERG current change (%, negative = inhibition) at 1uM” value rises from 6.75% to 8.42%.

First: CN(c1ccc(C(=O)NCCCn2ccnc2)cc1)S(C)(=O)=O
Second: CS(=O)(=O)N(CCc1ccccc1)CC(=O)NCc1ccncc1
The “hERG current change (%, negative = inhibition) at 1uM” value of the first is higher: 11.1% for the first, 8.15% for the second.

Compared with `CC1CCc2c(sc(NC(=O)CCC(=O)O)c2C(=O)NC2CC2)C1` (stereo not shown), `CC(C)c1ccc(OCc2ccc(C(=O)N3CCCC3)o2)cc1` is lower in “hERG current change (%, negative = inhibition) at 1uM” value: 11.6% for the first, 10.6% for the second.
